This is one part of the list.

In this experiment the target is T1, MBP-FoxP1dN (Mus musculus, UniProt P58462 326-579).
T1 sequence: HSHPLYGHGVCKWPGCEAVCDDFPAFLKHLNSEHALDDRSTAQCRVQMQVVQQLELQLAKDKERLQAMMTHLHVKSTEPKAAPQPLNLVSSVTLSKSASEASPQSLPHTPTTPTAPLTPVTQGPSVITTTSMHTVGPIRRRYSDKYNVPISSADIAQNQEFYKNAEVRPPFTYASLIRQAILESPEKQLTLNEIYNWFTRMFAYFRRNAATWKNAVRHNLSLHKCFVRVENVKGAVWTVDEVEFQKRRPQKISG
Nature of the experiment: PD-seq (MBP pull-down with sequencing); 20 mM Tris-HCl pH 7.5, 100 mM NaCl, 1.5 mM MgCl2, 0.4 uM protein, 0.1 uM dsDNA library, 30 min, room temperature, amylose pull-down; high values mean tight binding. The conditions noted are these: protein: recombinant; tags: His6-MBP; chain copies: 2; dsDNA, one strand shown. The method in brief:
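Binding is reads-per-million enrichment of pull-down over input, with replicates pooled. It comes from 30 min room-temperature incubation in Tris pH 7.5 buffer with NaCl and MgCl2 of 0.4 µM His6-MBP-tagged, N-terminally truncated mouse FoxP3 or FoxP1 fragment from E. coli with 0.1 µM Klenow-filled degenerate double-stranded DNA library, followed by amylose resin capture, three washes and Illumina sequencing of the released DNA.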
“GATGATTGTTCTCCCAGCTGATGAATTGTGTCAATCGAGTAAACAAATTTTCCTAATCTTTCTGTTCAAGCGCCATCTAC”: the binding signal is 1.33 RPM ratio (pull-down/input).

Regarding “GATGATTGTTCTCCCAGCTGATGAATTCGTTCAGTCGAGTAAACAAATTTTCCTAATCTTTCTGTTCAAGCGCCATCTAC”, the binding signal is 0.884 RPM ratio (pull-down/input).

As to “GATGATTGTTCTCCCAGCTGATGAATTGGCGCGTTCGAGTAAACAAATTTTCCTAATCTTTCTGTTCAAGCGCCATCTAC”, the binding signal was 0.93 RPM ratio (pull-down/input).

Turning to “GATGATTGTTCTCCCAGCTGATGAATTGAATGGATCGAGTAAACAAATTTTCCTAATCTTTCTGTTCAAGCGCCATCTAC”, the binding signal is 0.778 RPM ratio (pull-down/input).

“GATGATTGTTCTCCCAGCTGATGAATTAACTAACTCGAGTAAACAAATTTTCCTAATCTTTCTGTTCAAGCGCCATCTAC”: the binding signal is 0.959 RPM ratio (pull-down/input).

In the case of “GATGATTGTTCTCCCAGCTGATGAATTTTAAGCTTCGAGTAAACAAATTTTCCTAATCTTTCTGTTCAAGCGCCATCTAC”, the binding signal is 0.827 RPM ratio (pull-down/input).

For “GATGATTGTTCTCCCAGCTGATGAATTTGTCTTATCGAGTAAACAAATTTTCCTAATCTTTCTGTTCAAGCGCCATCTAC”, the binding signal was 1.17 RPM ratio (pull-down/input).

On to “GATGATTGTTCTCCCAGCTGATGAATTACTGGGCTCGAGTAAACAAATTTTCCTAATCTTTCTGTTCAAGCGCCATCTAC”, for which the binding signal is 0.8 RPM ratio (pull-down/input).

Take “GATGATTGTTCTCCCAGCTGATGAATTCGTCGATTCGAGTAAACAAATTTTCCTAATCTTTCTGTTCAAGCGCCATCTAC”: the binding signal was 0.887 RPM ratio (pull-down/input).

Regarding “GATGATTGTTCTCCCAGCTGATGAATTTTGAACGTCGAGTAAACAAATTTTCCTAATCTTTCTGTTCAAGCGCCATCTAC”, the binding signal is 0.909 RPM ratio (pull-down/input).

As to “GATGATTGTTCTCCCAGCTGATGAATTGAATACTTCGAGTAAACAAATTTTCCTAATCTTTCTGTTCAAGCGCCATCTAC”, the binding signal is 0.936 RPM ratio (pull-down/input).

“GATGATTGTTCTCCCAGCTGATGAATTGAGTCAGTCGAGTAAACAAATTTTCCTAATCTTTCTGTTCAAGCGCCATCTAC”: the binding signal was 0.805 RPM ratio (pull-down/input).

“GATGATTGTTCTCCCAGCTGATGAATTATACATATCGAGTAAACAAATTTTCCTAATCTTTCTGTTCAAGCGCCATCTAC”: the binding signal was 1.27 RPM ratio (pull-down/input).

As to “GATGATTGTTCTCCCAGCTGATGAATTTTCGGAATCGAGTAAACAAATTTTCCTAATCTTTCTGTTCAAGCGCCATCTAC”, the binding signal was 0.951 RPM ratio (pull-down/input).

“GATGATTGTTCTCCCAGCTGATGAATTGATACATTCGAGTAAACAAATTTTCCTAATCTTTCTGTTCAAGCGCCATCTAC”: the binding signal was 1.53 RPM ratio (pull-down/input).

Turning to “GATGATTGTTCTCCCAGCTGATGAATTTAAACCTTCGAGTAAACAAATTTTCCTAATCTTTCTGTTCAAGCGCCATCTAC”, the binding signal is 0.849 RPM ratio (pull-down/input).

With “GATGATTGTTCTCCCAGCTGATGAATTCTGCAAATCGAGTAAACAAATTTTCCTAATCTTTCTGTTCAAGCGCCATCTAC”, the binding signal is 1.06 RPM ratio (pull-down/input).

“GATGATTGTTCTCCCAGCTGATGAATTGCGTGCGTCGAGTAAACAAATTTTCCTAATCTTTCTGTTCAAGCGCCATCTAC”: the binding signal is 1.18 RPM ratio (pull-down/input).

“GATGATTGTTCTCCCAGCTGATGAATTGCCTGTCTCGAGTAAACAAATTTTCCTAATCTTTCTGTTCAAGCGCCATCTAC”: the binding signal is 0.888 RPM ratio (pull-down/input).

Turning to “GATGATTGTTCTCCCAGCTGATGAATTCGTGTGATCGAGTAAACAAATTTTCCTAATCTTTCTGTTCAAGCGCCATCTAC”, the binding signal was 0.95 RPM ratio (pull-down/input).

In the case of “GATGATTGTTCTCCCAGCTGATGAATTCAGTACTTCGAGTAAACAAATTTTCCTAATCTTTCTGTTCAAGCGCCATCTAC”, the binding signal is 0.913 RPM ratio (pull-down/input).

As for “GATGATTGTTCTCCCAGCTGATGAATTAACGATCTCGAGTAAACAAATTTTCCTAATCTTTCTGTTCAAGCGCCATCTAC”, the binding signal is 0.918 RPM ratio (pull-down/input).

For “GATGATTGTTCTCCCAGCTGATGAATTTATACCTTCGAGTAAACAAATTTTCCTAATCTTTCTGTTCAAGCGCCATCTAC”, the binding signal is 1.04 RPM ratio (pull-down/input).

With “GATGATTGTTCTCCCAGCTGATGAATTATCTTTTTCGAGTAAACAAATTTTCCTAATCTTTCTGTTCAAGCGCCATCTAC”, the binding signal was 1.02 RPM ratio (pull-down/input).

With “GATGATTGTTCTCCCAGCTGATGAATTGTACTAATCGAGTAAACAAATTTTCCTAATCTTTCTGTTCAAGCGCCATCTAC”, the binding signal is 1.15 RPM ratio (pull-down/input).

In the case of “GATGATTGTTCTCCCAGCTGATGAATTAAACACTTCGAGTAAACAAATTTTCCTAATCTTTCTGTTCAAGCGCCATCTAC”, the binding signal was 1.21 RPM ratio (pull-down/input).

Regarding “GATGATTGTTCTCCCAGCTGATGAATTGAGTCCGTCGAGTAAACAAATTTTCCTAATCTTTCTGTTCAAGCGCCATCTAC”, the binding signal is 0.855 RPM ratio (pull-down/input).

Regarding “GATGATTGTTCTCCCAGCTGATGAATTTTTGTGATCGAGTAAACAAATTTTCCTAATCTTTCTGTTCAAGCGCCATCTAC”, the binding signal is 1.19 RPM ratio (pull-down/input).

As to “GATGATTGTTCTCCCAGCTGATGAATTACTTAGCTCGAGTAAACAAATTTTCCTAATCTTTCTGTTCAAGCGCCATCTAC”, the binding signal is 0.999 RPM ratio (pull-down/input).

Turning to “GATGATTGTTCTCCCAGCTGATGAATTGGCAGCGTCGAGTAAACAAATTTTCCTAATCTTTCTGTTCAAGCGCCATCTAC”, the binding signal was 0.941 RPM ratio (pull-down/input).

As to “GATGATTGTTCTCCCAGCTGATGAATTGGTGCATTCGAGTAAACAAATTTTCCTAATCTTTCTGTTCAAGCGCCATCTAC”, the binding signal was 1.35 RPM ratio (pull-down/input).

As for “GATGATTGTTCTCCCAGCTGATGAATTTTATTTGTCGAGTAAACAAATTTTCCTAATCTTTCTGTTCAAGCGCCATCTAC”, the binding signal was 2.45 RPM ratio (pull-down/input).

The values are drawn from publication PMC12820563, “FoxP3 forms a head-to-head dimer in vivo and stabilizes its multimerization on adjacent microsatellites”.
